The campaign covered roughly 48,000 compounds. About 120 (0.25%) were called active. About 4% were inconclusive and are not listed. Calls come from the whole dose curve; as a rule, active = well fitted activation curve with a large enough effect; inconclusive = small, poorly fitted or top-dose-only effect, or another doubt; inactive = no such curve, though single readings can be large or run the other way. The list shows a part of the results.
assay: Primary qHTS for Identification of Small Molecule Activators of Huntingtin-Antisense Promoter Activity; details: HEK293 HTT-AS promoter firefly luciferase reporter, 24 h; series mostly up to 57.5 µM; activity change, positive = activation: at the top concentration; note: nearly all actives have a fitted effect of over 55% in size
In short: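 HEK293 Fluc reporter, 2,500 cells/well, 24 h pre-culture; cpds up to 57.5 uM final, 24 h 37 degrees C; Dual-Glo, 10 min RT; normalized vehicle = 0%, zero RLU = -100%.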

Activity change, positive = activation, inactive:
CCc1ccc(NC(=O)[C@H](CSCc2ccccc2)N2Cc3ccccc3C2=O)cc1 -16.6%
COc1ccc(-c2cc3c(=O)n(CC(=O)Nc4cc(F)ccc4F)ccn3n2)cc1OC -26.7%
Cc1nn(-c2ccccc2)c2sc(C(=O)Nc3ccc(Br)cc3)cc12 6.04% [at 11.5 µM, percent change from vehicle, -100% = no light]
O=C1COc2ccc(-c3cc(-c4ccccc4)c4c(n3)-c3ccccc3OC4)cc2N1 0.309%
O=C(NCCc1ccc(Cl)cc1)c1ccc2c(c1)N(Cc1ccc(F)cc1)C(=O)CS2 -57.2%
CN(C)c1ccc(-c2nc(-c3cccs3)c(-c3cccs3)[nH]2)cc1 -43.1%
CN1CCN(CCCN2c3ccccc3Sc3ccc(S(=O)(=O)N(C)C)cc32)CC1 -8.61%
CCCn1c(SCC(O)c2ccccc2)nc2ccccc21 (stereo not given) -13.8%
COc1cccc(CNC(=O)CCCn2ncn3c(cc4occc43)c2=O)c1 -9.48%
CN[C@@H](C)[C@H]1[C@H](O)C[C@@]2(C)[C@@H]3CC[C@H]4C(C)(C)[C@@H](NC)CC[C@@]45C[C@@]35CC[C@]12C -2.75%
Cc1ccc(-c2noc(-c3ccccc3NC(=O)C3CC(=O)N(c4ccc(C)cc4)C3)n2)cc1 (stereo not given) 20.4%
COc1cc2nc(Nc3cccc(C)c3)nc(N)c2cc1OC -3.8%
Cc1ccc(C(=O)NCC(c2ccco2)S(=O)(=O)c2cccs2)cc1C (stereo not given) 14.2%
COC(=O)c1sc(-c2ccccc2)cc1NC(=O)Nc1ccc(Cl)cc1 -13%
CC1=C(C(=O)NCc2ccccc2C)C2(CCCCCC2)OC1=O -11%
CCCCN(Cc1cc2ccccc2[nH]c1=O)C(=O)c1cccc(Cl)c1 -13.2%
O=C(Oc1ccc(F)cc1)c1nc(SCc2ccc(F)cc2)ncc1Cl -1.21%
COc1ccc(NC(=O)CCS(=O)(=O)c2ccc3c(c2)oc(=O)n3C)cc1OC -17.8%
O=c1[nH]c(=O)n([C@H]2CCCO2)cc1F -10.1%
COc1ccccc1C(=O)OCc1cc(=O)n2nc(-c3cccs3)sc2n1 21.1%
CCOc1ccc(-c2cc(NC(=O)Nc3ccc(Cl)cc3)c(C(=O)OC)s2)cc1 22.3%
CCCSc1ncc(Cl)c(C(=O)N(Cc2cccc(Cl)c2)C2CCS(=O)(=O)C2)n1 (stereo not given) -35.4%
CCOC(=O)c1c(NC(=O)CCCOc2ccc(C(C)(C)C)cc2)sc2c1CCCC2 -13.3%
COc1ccc(OC)c(NC(=O)c2cnc(N3CCCCC3)c3ccccc23)c1 -26.7%
Cc1cccc(C(c2sc3nc(-c4ccco4)nn3c2O)N2CCN(c3ccccc3F)CC2)c1 (stereo not given) -1.61%
CCOC(=O)C1CCCN(S(=O)(=O)c2cc(Br)cc3c2N(C(C)=O)CC3)C1 (stereo not given) -9.2%
CCC(=O)N1CCc2cc(S(=O)(=O)NCCC(=O)NCc3ccc(C)cc3)ccc21 -0.436%
CN(C)CCCNC(=O)c1ccc(-c2cc(O)c3ncccc3c2)cc1 -13.5%
COc1cccc(-n2c(-c3ccccc3F)nc3c(cnn3-c3ccc(C)cc3)c2=O)c1 -47.1%
COc1ccc(NC(=O)c2sc3nc4c(cc3c2N)CCCCCC4)cc1 -35.9%
CCOC(=O)C(Cc1ccccc1)NC(=O)CCc1c(C)nc2nc(C)nn2c1C (stereo not given) -9.29%
Cc1ccccc1NC(=O)CSc1nc(-c2ccccc2)cn1-c1ccccc1F -12.1%
O=C(NC1CCCC1)c1ccc2c(=O)n(Cc3ccccc3)c(SCc3cccc([N+](=O)[O-])c3)nc2c1 -9.73%
COCCNC(=O)CSc1nc2cc3c(cc2c(=O)n1CCCC(=O)NCc1ccc2c(c1)OCO2)OCO3 -12.6%
COc1ccc(CNC(=O)CSc2ncc3c(n2)-c2cc(Cl)ccc2N(Cc2ccccc2)S3(=O)=O)cc1 -6.47%
Cc1ccc(Cl)cc1N1CCN(C(=O)Cn2c(-c3cccs3)cc3cc(F)ccc32)CC1 -14.6%
CCOC(=O)Cn1c(=O)cc(C(F)(F)C(F)(F)F)c2c(C)nn(CC)c21 -3.06%
Cc1cc(OCCn2c(CCNC(=O)C3CCCCC3)nc3ccccc32)ccc1Cl -46.8%
Cc1ccc(-c2nc(SCC(=O)NCC3CCCO3)c3c(=O)n(C)c(=O)n(C)c3n2)cc1 (stereo not given) 1.17%
CCOC(=O)CSC1=Nc2ccccc2C2=NC(CCC(=O)NCc3ccc(OC)cc3)C(=O)N12 (stereo not given) 10.7%
Cc1ccccc1N1CCN(S(=O)(=O)c2ccccc2)CC1 -10.7%
Oc1c(C(c2ccccc2F)N2CCN(c3ccccc3F)CC2)sc2nc(-c3ccco3)nn12 (stereo not given) -16.2%
COc1ccc(C)cc1NS(=O)(=O)c1ccc2c3c(cccc13)C(=O)N2 -41.3%
COc1ccccc1Cn1ccn(Cc2ccc(C)cc2)c(=O)c1=O -5.89%
CN(C)CC[C@H](c1ccc(Cl)cc1)c1ccccn1 -30.5%
CCCc1cc(N2CCN(c3cccc(C)c3C)CC2)n2cnnc2n1 -22%
Cc1cc(C)c(NC(=O)CSc2nccn2-c2cccc(Cl)c2)c(C)c1 -29.8%
COc1ccc(CNC(=O)CCC2N=C3c4ccccc4N=C(SCc4ccccc4F)N3C2=O)cc1 (stereo not given) -0.709%
COC(=O)c1ccc(NC(=O)CN2CCN(S(=O)(=O)c3ccc(Br)cc3)CC2)cc1 -15.5%
COc1ccc(S(=O)(=O)N(CC(=O)Nc2cc(C)ccc2OC)Cc2ccccc2)cc1 -5.07%
CCOc1ccccc1NS(=O)(=O)c1ccc2[nH]c3c(c2c1)CCCCC3 -45.6%
Cc1ccc(Cn2c(=O)n(-c3ccc(C)cc3)c(=O)c3c2c2cc(C)ccc2n3C)cc1 -12%
CCOc1ccc(CCNC(=O)c2cc3c(=O)n(C)c4ccccc4c3n2C)cc1OCC -19.8%
Cc1c(-c2ccc(Cl)cc2)c(=O)oc2c(CN3CCN(CCO)CC3)c(O)ccc12 -23.3%
O=C(CSc1cn(CC(=O)N2CCCCC2)c2ccccc12)NCc1ccc(F)cc1 -19.2%
C[C@@H]1CC(=O)NN=C1c1ccc(NN=C(C#N)C#N)cc1
N#C/C(=C\c1cccc(F)c1)c1nc(-c2cc3c(ccc4ccccc43)oc2=O)cs1 -2.86%
CCOc1cc(C2c3c(oc4cc(C)cc(C)c4c3=O)C(=O)N2CCO)ccc1O (stereo not given) -1.32%
CSc1cccc(NC(=O)C2CCCN(C(=O)c3cnn(-c4ccc(F)cc4)c3-n3cccc3)C2)c1 (stereo not given) -34.3%
CCOc1ccc(CNC(=O)C2CCN(C(=O)N3CC(CC)Oc4ccccc43)CC2)cc1 (stereo not given) -37%

Source: PubChem BioAssay AID1508624 (National Center for Advancing Translational Sciences (NCATS), 2021)
